{
  "source": "paper PMC12136788",
  "binders": {"B1": {"name": "chr8:54879716:54879717:-_ENSG00000187735_ENST00000521604|hu_mus|FALSE|FALSE (ssRNA)", "RNA": "GGGAGUUCUACAGUCCGACGAUCUCAUCAUGUAAGAAAAAUUUCAGCACAAAAGAUUCAGUCUAAAGGAGGUGCCUUUUUUUGCAACCUCCAUACACAAAGAGCAUAGCUUAAUGAUUUACACAGUUCUCAGGCUUAAUCCUUCAACAGAGGAUUGAGCAUCA"}, "B2": {"name": "chr2:5814250:5814251:-_ENSMUSG00000025816_ENSMUST00000102981|mus_hu|mus_mus_mus_hu_True|78_108 (ssRNA)", "RNA": "GGGAGUUCUACAGUCCGACGAUCUUCCUUUCAGGCUUCUGAAUUUCUGGUAGAACUGCACAGAAAGGUUUGAUAACUUCUAAAAAUUUGAUGCCCAUGGCUGCUGCUGGGGAGGCCCAGGGGGAAACCGCGGCCUCGGCGCUGCAACAGAGGAUUGAGCAUCA"}, "B3": {"name": "chr1:163112212:163112213:-_ENSG00000143248_ENST00000313961|hu_hu|hu_hu_hu_mus_False|1_48 (ssRNA)", "RNA": "GGGAGUUCUACAGUCCGACGAUCUUUUAUUAUCAGUAAGAGUGAGUUACAUACUAGGCAAAGUAUUGGAUACAAUAAUCAGGAAACAAACACAAUUGGUCCAGAAUUUAAAACUUUAUGAGCGAAGUGCUGGCACAGGAUUUACAACAGAGGAUUGAGCAUCA"}, "B4": {"name": "102723950_102724070_875_CDS_ENSMUSG00000020929_ENSMUST00000107060|mouse|control|control (ssRNA)", "RNA": "GGGAGUUCUACAGUCCGACGAUCAAUGUGUCGCAGCUUGUAAUAAGCAUCUGUUGGAGGCAGCUUCAGCUCCAAGAUCAGCCGGUCGAUUUUGUUGAUACACACGGUGACUGCUAACCUUUCCUGCACUGCGUGCUUGAUCAGCAACAGAGGAUUGAGCAUCA"}, "B5": {"name": "chr15:73134924:73134925:-_ENSMUSG00000022607_ENSMUST00000110036|mus_mus|motif|central (ssRNA)", "RNA": "GGGAGUUCUACAGUCCGACGAUCGUCAAAUCUGUACACAGGAGAAAGAAUCUCAAAGAAUUUCAGGAUGCUUUCUUCUCGGUUAAGGUUGGCAAACUGCCUGAAUGUUUGCUGGAUCAGCUUUCUUAGUGUUUUGGCCUUGACCAACAGAGGAUUGAGCAUCA"}, "B6": {"name": "chr11:215046:215047:+_ENSG00000177963_ENST00000526104|hu_hu|motif|central (ssRNA)", "RNA": "GGGAGUUCUACAGUCCGACGAUCUUUAUUUCAAGAUGAUGUUUCUGUGGCUAUGUGUGGUAUGUGGUAUAAAUCUCAAUCGGUGGUCACACGAGGGGCAUUUUCCUUGUUGUAAGUGUAGUCUAAACCAGUAGGAAGGAGGUUCAACAGAGGAUUGAGCAUCA"}, "B7": {"name": "chr8:117868997:117868998:-_ENSG00000164754_ENST00000297338|hu_hu|FALSE|FALSE (ssRNA)", "RNA": "GGGAGUUCUACAGUCCGACGAUCCACCCCUGCCUCAGAGAGGGCAGGGGGAUCAUCAAAGAUACCGCCAUCAUUAUUACUAAUAAGUUUGUCAUCUAAUAUUCCACCAUCAUUUCCUUCUCCAAAAUUAUCAUCCUUAUAUUGCAACAGAGGAUUGAGCAUCA"}, "B8": {"name": "chr15:38777322:38777323:+_ENSG00000171262_ENST00000397609|hu_hu|motif|central (ssRNA)", "RNA": "GGGAGUUCUACAGUCCGACGAUCAGAAAAAAAUGAUUCACAACAACUGCCUACUAAAUACAACUGGAAGUGCCUUUCCCGGUUUUGUAAAAUCGAAUGAAAAACCCACAAAACACAUCCACAGCAAUACAGGUGAGGCAAGGGCAACAGAGGAUUGAGCAUCA"}, "B9": {"name": "chr10:97366135:97366136:-_ENSG00000059573_ENST00000371224|hu_hu|FALSE|FALSE (ssRNA)", "RNA": "GGGAGUUCUACAGUCCGACGAUCAUGACUACAUGUGAAAGAAAUAAAAUGUGAAAAGAUUUGUUAAGGAUGACUGGCUCUAGUACCAACUAAAUGCCAAGGGGGACUGUAAGUCACUGAGGUGACACAAAGCAGCCAUGGGUUCAACAGAGGAUUGAGCAUCA"}, "B10": {"name": "chr3:58389949:58389950:+_ENSMUSG00000075700_ENSMUST00000107924|mus_hu|motif|central (ssRNA)", "RNA": "GGGAGUUCUACAGUCCGACGAUCCAAGAAGAAAACCAUCAUACAUGCAUAAACCUUAUUUUCUUGGCCCCACUGCCAGAUGCGGGGAGCUUGCAUGCCAAAGAAAGCAAAAGGAUCCUUGCCAACAAUUAUUAAGCCUAUUAACAACAGAGGAUUGAGCAUCA"}, "B11": {"name": "chr14:100422286:100422287:-_ENSMUSG00000072294_ENSMUST00000097079|mus_mus|motif|central (ssRNA)", "RNA": "GGGAGUUCUACAGUCCGACGAUCAGGGGAGGUCCUGGCUUUGUUGAUUGACAAGUCCACUGGCUCAGUUUGUGUCUGAAAGUGAUCGGCAGGCAGUGAGUCCUCUGGGGGCUCCCCUUUCACAUUAUUUAGCAAGAGGGGGACCAACAGAGGAUUGAGCAUCA"}, "B12": {"name": "chr8:104447970:104447971:+_ENSG00000164934_ENST00000297579|hu_hu|hu_hu_hu_mus_False|18_68 (ssRNA)", "RNA": "GGGAGUUCUACAGUCCGACGAUCAUACACUUCCCUGCUUCGGCUCUUGUCCACAGGAAAGAUUCUAAUAGAUUUAUCAAAGCUGGCAGACACAAAUUCCUUCCCAGUGGGAGAGUAAUCCACAUCAAGUACUGCAGACACGUGCAACAGAGGAUUGAGCAUCA"}, "B13": {"name": "chr10:7839049:7839050:+_ENSG00000165629_ENST00000356708|hu_hu|FALSE|FALSE (ssRNA)", "RNA": "GGGAGUUCUACAGUCCGACGAUCCAGCUCUCUCUCAGCUCGGGCAUAUUUUGCUGCCGCUACCAUUUUCAUAGACUUGGUAAUUUUCUGGAUGUUUUUGAUGGACUUUAGUCUCCUGGUGAUAUCUUUCAAAGUUGCCAUAUUCAACAGAGGAUUGAGCAUCA"}, "B14": {"name": "chr14:102368134:102368135:+_ENSG00000078304_ENST00000445439|hu_hu|hu_hu_hu_mus_True|78_78 (ssRNA)", "RNA": "GGGAGUUCUACAGUCCGACGAUCAAGAGGCUCCAUGAUCUUCACAAACUCUGAUGGUUCAAUGACAUCUAAAAUUUCUUCUAAUUCAUUUAAGAACAUUACUUCUUUUGGACUGUGAGUCUUUGGCCAGUAUUUGAGAAGUGCCAACAGAGGAUUGAGCAUCA"}, "B15": {"name": "51076992_51079696_1372_CDS_ENSG00000066084_ENST00000301180|human|control|control (ssRNA)", "RNA": "GGGAGUUCUACAGUCCGACGAUCUUUUAGACAAACUUCACUGGUAAGAGCUAAGGCAAUACCACAGCUUCCUAGCAAGAAGCCAAUCUGCUGACCUCCAGCAUCCUUUCUGGUAAGAGGUACCUCUAUAGGCACUGGAAUCACCAACAGAGGAUUGAGCAUCA"}, "B16": {"name": "chr2:49629323:49629324:+_ENSMUSG00000026764_ENSMUST00000028102|mus_mus|FALSE|FALSE (ssRNA)", "RNA": "GGGAGUUCUACAGUCCGACGAUCUCAAAUGCAGUCGGCAUUAUAAGCCCCAACCAUAACCACUAUCUUCAAUAACAUUCUAAUCAUCACCCCAACGGCUGGCAGGCAGAGGUUAUUUGUCUAAACCAUCUGGCUGCACUCCUACAACAGAGGAUUGAGCAUCA"}, "B17": {"name": "chr3:19992450:19992451:+_ENSG00000144566_ENST00000273047|hu_hu|motif|central (ssRNA)", "RNA": "GGGAGUUCUACAGUCCGACGAUCUUUCACAAAACGAAGCACUAGGCUUGAUUUGCCAACAGCGGACUCUCCCAGAAGUACGGGUUUGAACUGGCAUAUUUUAUUUCCCGUAUUUGGCCCGUUGGGUCUUGUUGCGCCUCGACUCAACAGAGGAUUGAGCAUCA"}, "B18": {"name": "chr5:145543945:145543946:-_ENSG00000133706_ENST00000545646|hu_hu|hu_hu_hu_mus_True|98_98 (ssRNA)", "RNA": "GGGAGUUCUACAGUCCGACGAUCCUGAACGGCCAGUGGCGGGAAAUAAUCAAGCCAGUGCUCUGCUUCAGAAAACUUCACUAUGUCGUCAUCAGAGAGCCCAAGGGAUUUCAUAAUGUCCCACUGGUACUUAGAAGAUCCUGCCAACAGAGGAUUGAGCAUCA"}, "B19": {"name": "chr3:9412954:9412955:+_ENSG00000134077_ENST00000452837|hu_mus|hu_hu_hu_mus_False|58_78 (ssRNA)", "RNA": "GGGAGUUCUACAGUCCGACGAUCGGUUGAUAUCUCUUCUUUGAUGGCUGGAUUUUCAUAAUAAUCUAAGAUAUGUGAAUCUAAAGCGCUGCUGGCAUGCUUUUUCUUACCAUCUUUCUCAUCUGCUUUGUCUCCUUGUCCACACAACAGAGGAUUGAGCAUCA"}, "B20": {"name": "chr2:232320318:232320319:-_ENSG00000115053_ENST00000322723|hu_hu|hu_hu_hu_mus_True|28_108 (ssRNA)", "RNA": "GGGAGUUCUACAGUCCGACGAUCACUGUUGAAGUCUACAAAACCAAACCCUUUGGAAGAACCAGUUUCCCGAUCAGUGACUAUUCUUGCACGAACAGAGCCCUCAAAUGACUCCUUUAAGGUCUCUUCAGUGGUAUCCUCAGACAACAGAGGAUUGAGCAUCA"}, "B21": {"name": "chr1:76254992:76254993:+_ENSG00000137955_ENST00000319942|hu_hu|motif|central (ssRNA)", "RNA": "GGGAGUUCUACAGUCCGACGAUCCAGCGUAAGAAUCUGGACAGCACUAAGAGUGUAUAAAAGAUGAGGAUCAUGUCCGAUACGGGCACUUAUUCCACCACAUUCAUGUUGGCAAGACUUAAUAAAUGCCAGAAUCUCUUCUCUCAACAGAGGAUUGAGCAUCA"}, "B22": {"name": "chr1:58468927:58468928:-_ENSMUSG00000026034_ENSMUST00000148330|mus_mus|mus_mus_mus_hu_False|1_8 (ssRNA)", "RNA": "GGGAGUUCUACAGUCCGACGAUCAAUUACUGAAAAAGAUGUUCAUUACCUUAGCUAUGUACUUAAUGAACCAAAUUACCCAAACAAAAUAAACAUGGCAAUAUAAAAAUGUUAAGAAUUUACAAAGAUUAAAAGCUAGACUGACAACAGAGGAUUGAGCAUCA"}},
  "note": "The other results are listed elsewhere or left out.",
  "data": [
    {"biological_target": "T1, UNK ZnF1-3 (human, UniProt Q9C0B0 31-174)", "T1 sequence": "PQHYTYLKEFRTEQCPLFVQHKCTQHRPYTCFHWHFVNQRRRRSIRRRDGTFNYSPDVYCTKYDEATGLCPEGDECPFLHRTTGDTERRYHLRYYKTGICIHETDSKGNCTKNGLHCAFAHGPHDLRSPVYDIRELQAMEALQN", "assay": "nsRBNS (natural sequence RNA bind-n-seq); RBNS binding buffer (assumed for nsRBNS): 25 mM Tris pH 7.5, 150 mM KCl, 3 mM MgCl2, 0.01% Triton X-100, 500 ug/ml BSA, 20 U/ml SUPERase-In, 4 C; UNK is unkempt and MSI1 is Musashi-1; names of the RNAs are library labels; protein concentration not given here; high values mean tight binding", "units": {"binding signal": "enrichment R"}, "values": [
      {"binder": "B1", "binding signal": 0.679},
      {"binder": "B2", "binding signal": 1.39},
      {"binder": "B3", "binding signal": 1.36},
      {"binder": "B4", "binding signal": 0.679},
      {"binder": "B5", "binding signal": 0.817},
      {"binder": "B6", "binding signal": 1.11},
      {"binder": "B7", "binding signal": 1.25},
      {"binder": "B8", "binding signal": 1.94},
      {"binder": "B9", "binding signal": 2.95},
      {"binder": "B10", "binding signal": 1.24},
      {"binder": "B11", "binding signal": 0.92},
      {"binder": "B12", "binding signal": 1.24},
      {"binder": "B13", "binding signal": 0.49},
      {"binder": "B14", "binding signal": 0.741},
      {"binder": "B15", "binding signal": 0.649},
      {"binder": "B16", "binding signal": 1.13},
      {"binder": "B17", "binding signal": 0.746},
      {"binder": "B18", "binding signal": 1.13},
      {"binder": "B19", "binding signal": 0.464},
      {"binder": "B20", "binding signal": 0.429},
      {"binder": "B21", "binding signal": 1.17},
      {"binder": "B22", "binding signal": 2.3}
    ]}
  ]
}
